Data: paper PMC6962326
These are yes or no findings as the source states them, for the method shown. For some assays here: In cells and extracts the contact can be indirect. Some binding calls cover weakened binding; strength is not graded here.

Protein sequences, listed by entry. Tags and fused reporters are not part of them. Lines headed by an entry give the natural chain unless they say otherwise; changes in a name come on top.
UniProt P10238: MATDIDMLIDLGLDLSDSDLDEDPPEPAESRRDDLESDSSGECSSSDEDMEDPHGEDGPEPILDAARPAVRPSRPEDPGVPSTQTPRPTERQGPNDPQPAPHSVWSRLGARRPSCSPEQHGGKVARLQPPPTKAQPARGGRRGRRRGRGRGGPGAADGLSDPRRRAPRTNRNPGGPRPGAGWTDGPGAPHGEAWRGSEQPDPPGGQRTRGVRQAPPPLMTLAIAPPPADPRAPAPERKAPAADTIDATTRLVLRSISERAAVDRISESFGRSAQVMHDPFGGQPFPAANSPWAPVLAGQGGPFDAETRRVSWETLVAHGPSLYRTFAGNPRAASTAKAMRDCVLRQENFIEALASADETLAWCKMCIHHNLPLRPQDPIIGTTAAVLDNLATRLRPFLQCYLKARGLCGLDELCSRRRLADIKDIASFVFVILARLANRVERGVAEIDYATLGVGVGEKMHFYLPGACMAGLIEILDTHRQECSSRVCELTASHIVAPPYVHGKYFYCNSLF
UniProt O95639: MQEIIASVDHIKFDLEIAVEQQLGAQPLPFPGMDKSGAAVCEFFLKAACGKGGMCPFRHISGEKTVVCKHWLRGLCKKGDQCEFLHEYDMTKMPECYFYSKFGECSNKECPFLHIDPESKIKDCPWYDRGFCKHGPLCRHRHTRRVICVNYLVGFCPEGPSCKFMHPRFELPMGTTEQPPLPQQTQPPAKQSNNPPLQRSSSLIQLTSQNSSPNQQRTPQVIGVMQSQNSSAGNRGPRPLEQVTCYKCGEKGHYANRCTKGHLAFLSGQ
UniProt Q05048: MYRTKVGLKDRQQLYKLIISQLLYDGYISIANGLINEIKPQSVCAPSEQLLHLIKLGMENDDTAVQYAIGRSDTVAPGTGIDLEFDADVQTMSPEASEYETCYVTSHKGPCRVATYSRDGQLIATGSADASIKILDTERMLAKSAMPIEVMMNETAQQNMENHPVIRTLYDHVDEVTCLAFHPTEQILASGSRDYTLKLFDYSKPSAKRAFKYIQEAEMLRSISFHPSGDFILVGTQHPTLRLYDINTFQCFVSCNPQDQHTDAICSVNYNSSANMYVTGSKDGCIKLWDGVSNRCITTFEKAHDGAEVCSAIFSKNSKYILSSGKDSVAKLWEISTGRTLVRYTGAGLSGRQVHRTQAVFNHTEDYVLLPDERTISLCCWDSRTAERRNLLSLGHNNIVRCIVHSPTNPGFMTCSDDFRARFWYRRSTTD

Experiments:
[1] = target: HSV-1 immediate early protein ICP27, expressed from wild-type HSV-1 in infected cells (herpes simplex virus-1 (KOS)) (UniProt P10238); experiment: co-IP; anti-ICP27 antibody (P1119) and protein G magnetic beads on lysates of cells infected with WT HSV-1 (KOS), harvested at different times post-infection; IP buffer 150 mM NaCl, 10 mM Tris-HCl pH 7.4, 1 mM EDTA, 1% Triton X-100, 0.5% NP-40, RNase A/T1; 4 h at 4 °C; western blotting
[2] = target: GST-ICP27 (herpes simplex virus-1) (UniProt P10238); experiment: pull-down; GST pulldown with purified recombinant GST-ICP27 and recombinant Fip1, CPSF73 and CstF complex; input and pulldown analysed by western blotting; both purified

For “CPSF30, endogenous (from UniProt O95639 1-269)”, which binding [1] is on record?
Its binding is “binds”.

Which binding [2] does the source give for “recombinant CstF complex (from UniProt Q05048 1-431; P33240 1-577; Q12996 1-717)” here?
The binding was “no binding”.

B1: CPSF100, endogenous (protein, UniProt Q9P2I0 1-782)
chain: MTSIIKLTTLSGVQEESALCYLLQVDEFRFLLDCGWDEHFSMDIIDSLRKHVHQIDAVLLSHPDPLHLGALPYAVGKLGLNCAIYATIPVYKMGQMFMYDLYQSRHNTEDFTLFTLDDVDAAFDKIQQLKFSQIVNLKGKGHGLSITPLPAGHMIGGTIWKIVKDGEEEIVYAVDFNHKREIHLNGCSLEMLSRPSLLITDSFNATYVQPRRKQRDEQLLTNVLETLRGDGNVLIAVDTAGRVLELAQLLDQIWRTKDAGLGVYSLALLNNVSYNVVEFSKSQVEWMSDKLMRCFEDKRNNPFQFRHLSLCHGLSDLARVPSPKVVLASQPDLECGFSRDLFIQWCQDPKNSIILTYRTTPGTLARFLIDNPSEKITEIELRKRVKLEGKELEEYLEKEKLKKEAAKKLEQSKEADIDSSDESDIEEDIDQPSAHKTKHDLMMKGEGSRKGSFFKQAKKSYPMFPAPEERIKWDEYGEIIKPEDFLVPELQATEEEKSKLESGLTNGDEPMDQDLSDVPTKCISTTESIEIKARVTYIDYEGRSDGDSIKKIINQMKPRQLIIVHGPPEASQDLAECCRAFGGKDIKVYMPKLHETVDATSETHIYQVRLKDSLVSSLQFCKAKDAELAWIDGVLDMRVSKVDTGVILEEGELKDDGEDSEMQVEAPSDSSVIAQQKAMKSLFGDDEKETGEESEIIPTLEPLPPHEVPGHQSVFMNEPRLSDFKQVLLREGIQAEFVGGVLVCNNQVAVRRTETGRIGLEGCLCQDFYRIRDLLYEQYAIV
Which binding [1] does the source give for B1 here?
Its binding is “binds”.

B2: CPSF160, endogenous (protein, UniProt Q10570 1-1443)
chain: MYAVYKQAHPPTGLEFSMYCNFFNNSERNLVVAGTSQLYVYRLNRDAEALTKNDRSTEGKAHREKLELAASFSFFGNVMSMASVQLAGAKRDALLLSFKDAKLSVVEYDPGTHDLKTLSLHYFEEPELRDGFVQNVHTPRVRVDPDGRCAAMLVYGTRLVVLPFRRESLAEEHEGLVGEGQRSSFLPSYIIDVRALDEKLLNIIDLQFLHGYYEPTLLILFEPNQTWPGRVAVRQDTCSIVAISLNITQKVHPVIWSLTSLPFDCTQALAVPKPIGGVVVFAVNSLLYLNQSVPPYGVALNSLTTGTTAFPLRTQEGVRITLDCAQATFISYDKMVISLKGGEIYVLTLITDGMRSVRAFHFDKAAASVLTTSMVTMEPGYLFLGSRLGNSLLLKYTEKLQEPPASAVREAADKEEPPSKKKRVDATAGWSAAGKSVPQDEVDEIEVYGSEAQSGTQLATYSFEVCDSILNIGPCANAAVGEPAFLSEEFQNSPEPDLEIVVCSGHGKNGALSVLQKSIRPQVVTTFELPGCYDMWTVIAPVRKEEEDNPKGEGTEQEPSTTPEADDDGRRHGFLILSREDSTMILQTGQEIMELDTSGFATQGPTVFAGNIGDNRYIVQVSPLGIRLLEGVNQLHFIPVDLGAPIVQCAVADPYVVIMSAEGHVTMFLLKSDSYGGRHHRLALHKPPLHHQSKVITLCLYRDLSGMFTTESRLGGARDELGGRSGPEAEGLGSETSPTVDDEEEMLYGDSGSLFSPSKEEARRSSQPPADRDPAPFRAEPTHWCLLVRENGTMEIYQLPDWRLVFLVKNFPVGQRVLVDSSFGQPTTQGEARREEATRQGELPLVKEVLLVALGSRQSRPYLLVHVDQELLIYEAFPHDSQLGQGNLKVRFKKVPHNINFREKKPKPSKKKAEGGGAEEGAGARGRVARFRYFEDIYGYSGVFICGPSPHWLLVTGRGALRLHPMAIDGPVDSFAPFHNVNCPRGFLYFNRQGELRISVLPAYLSYDAPWPVRKIPLRCTAHYVAYHVESKVYAVATSTNTPCARIPRMTGEEKEFETIERDERYIHPQQEAFSIQLISPVSWEAIPNARIELQEWEHVTCMKTVSLRSEETVSGLKGYVAAGTCLMQGEEVTCRGRILIMDVIEVVPEPGQPLTKNKFKVLYEKEQKGPVTALCHCNGHLVSAIGQKIFLWSLRASELTGMAFIDTQLYIHQMISVKNFILAADVMKSISLLRYQEESKTLSLVSRDAKPLEVYSVDFMVDNAQLGFLVSDRDRNLMVYMYLPEAKESFGGMRLLRRADFHVGAHVNTFWRTPCRGATEGLSKKSVVWENKHITWFATLDGGIGLLLPMQEKTYRRLLMLQNALTTMLPHHAGLNPRAFRMLHVDRRTLQNAVRNVLDGELLNRYLYLSTMERSELAKKIGTTPDIILDDLLETDRVTAHF
B2 was tested. Which binding [1] did it give?
The binding was “binds”.

B3: Fip1, endogenous (protein, UniProt Q6UN15 1-594)
chain: MSAGEVERLVSELSGGTGGDEEEEWLYGGPWDVHVHSDLAKDLDENEVERPEEENASANPPSGIEDETAENGVPKPKVTETEDDSDSDSDDDEDDVHVTIGDIKTGAPQYGSYGTAPVNLNIKTGGRVYGTTGTKVKGVDLDAPGSINGVPLLEVDLDSFEDKPWRKPGADLSDYFNYGFNEDTWKAYCEKQKRIRMGLEVIPVTSTTNKITAEDCTMEVTPGAEIQDGRFNLFKVQQGRTGNSEKETALPSTKAEFTSPPSLFKTGLPPSRNSTSSQSQTSTASRKANSSVGKWQDRYGRAESPDLRRLPGAIDVIGQTITISRVEGRRRANENSNIQVLSERSATEVDNNFSKPPPFFPPGAPPTHLPPPPFLPPPPTVSTAPPLIPPPGFPPPPGAPPPSLIPTIESGHSSGYDSRSARAFPYGNVAFPHLPGSAPSWPSLVDTSKQWDYYARREKDRDRERDRDRERDRDRDRERERTRERERERDHSPTPSVFNSDEERYRYREYAERGYERHRASREKEERHRERRHREKEETRHKSSRSNSRRRHESEEGDSHRRHKHKKSKRSKEGKEAGSEPAPEQESTEATPAE
With B3 as the molecule, how does the binding [1] read?
The binding was “binds”.

B4: recombinant Fip1 (protein, UniProt Q6UN15 1-594)
chain: MSAGEVERLVSELSGGTGGDEEEEWLYGGPWDVHVHSDLAKDLDENEVERPEEENASANPPSGIEDETAENGVPKPKVTETEDDSDSDSDDDEDDVHVTIGDIKTGAPQYGSYGTAPVNLNIKTGGRVYGTTGTKVKGVDLDAPGSINGVPLLEVDLDSFEDKPWRKPGADLSDYFNYGFNEDTWKAYCEKQKRIRMGLEVIPVTSTTNKITAEDCTMEVTPGAEIQDGRFNLFKVQQGRTGNSEKETALPSTKAEFTSPPSLFKTGLPPSRNSTSSQSQTSTASRKANSSVGKWQDRYGRAESPDLRRLPGAIDVIGQTITISRVEGRRRANENSNIQVLSERSATEVDNNFSKPPPFFPPGAPPTHLPPPPFLPPPPTVSTAPPLIPPPGFPPPPGAPPPSLIPTIESGHSSGYDSRSARAFPYGNVAFPHLPGSAPSWPSLVDTSKQWDYYARREKDRDRERDRDRERDRDRDRERERTRERERERDHSPTPSVFNSDEERYRYREYAERGYERHRASREKEERHRERRHREKEETRHKSSRSNSRRRHESEEGDSHRRHKHKKSKRSKEGKEAGSEPAPEQESTEATPAE
How did the binding [2] turn out when B4 was run?
Its binding is “binds”.

B5: recombinant CPSF73 (protein, UniProt Q9UKF6 1-684)
chain: MSAIPAEESDQLLIRPLGAGQEVGRSCIILEFKGRKIMLDCGIHPGLEGMDALPYIDLIDPAEIDLLLISHFHLDHCGALPWFLQKTSFKGRTFMTHATKAIYRWLLSDYVKVSNISADDMLYTETDLEESMDKIETINFHEVKEVAGIKFWCYHAGHVLGAAMFMIEIAGVKLLYTGDFSRQEDRHLMAAEIPNIKPDILIIESTYGTHIHEKREEREARFCNTVHDIVNRGGRGLIPVFALGRAQELLLILDEYWQNHPELHDIPIYYASSLAKKCMAVYQTYVNAMNDKIRKQININNPFVFKHISNLKSMDHFDDIGPSVVMASPGMMQSGLSRELFESWCTDKRNGVIIAGYCVEGTLAKHIMSEPEEITTMSGQKLPLKMSVDYISFSAHTDYQQTSEFIRALKPPHVILVHGEQNEMARLKAALIREYEDNDEVHIEVHNPRNTEAVTLNFRGEKLAKVMGFLADKKPEQGQRVSGILVKRNFNYHILSPCDLSNYTDLAMSTVKQTQAIPYTGPFNLLCYQLQKLTGDVEELEIQEKPALKVFKNITVIQEPGMVVLEWLANPSNDMYADTVTTVILEVQSNPKIRKGAVQKVSKKLEMHVYSKRLEIMLQDIFGEDCVSVKDDSILSVTVDGKTANLNLETRTVECEEGSEDDESLREMVELAAQRLYEALTPVH
With B5 as the molecule, how does the binding [2] read?
The binding was “binds”.

B6: CPSF73, endogenous (protein, UniProt Q9UKF6 1-684)
chain: MSAIPAEESDQLLIRPLGAGQEVGRSCIILEFKGRKIMLDCGIHPGLEGMDALPYIDLIDPAEIDLLLISHFHLDHCGALPWFLQKTSFKGRTFMTHATKAIYRWLLSDYVKVSNISADDMLYTETDLEESMDKIETINFHEVKEVAGIKFWCYHAGHVLGAAMFMIEIAGVKLLYTGDFSRQEDRHLMAAEIPNIKPDILIIESTYGTHIHEKREEREARFCNTVHDIVNRGGRGLIPVFALGRAQELLLILDEYWQNHPELHDIPIYYASSLAKKCMAVYQTYVNAMNDKIRKQININNPFVFKHISNLKSMDHFDDIGPSVVMASPGMMQSGLSRELFESWCTDKRNGVIIAGYCVEGTLAKHIMSEPEEITTMSGQKLPLKMSVDYISFSAHTDYQQTSEFIRALKPPHVILVHGEQNEMARLKAALIREYEDNDEVHIEVHNPRNTEAVTLNFRGEKLAKVMGFLADKKPEQGQRVSGILVKRNFNYHILSPCDLSNYTDLAMSTVKQTQAIPYTGPFNLLCYQLQKLTGDVEELEIQEKPALKVFKNITVIQEPGMVVLEWLANPSNDMYADTVTTVILEVQSNPKIRKGAVQKVSKKLEMHVYSKRLEIMLQDIFGEDCVSVKDDSILSVTVDGKTANLNLETRTVECEEGSEDDESLREMVELAAQRLYEALTPVH
Which binding [1] does the source give for B6 here?
The binding was “binds”.
